{"source": "the supplement of paper PMC9588766", "note": "Counter-ions that a name gives are not always drawn. The full ranking holds about 1,900 compounds; the median of “cell viability of compound + 1 nM pemigatinib relative to pemigatinib-only (DMSO) wells” is about 0.95, and the lowest 2% start at about 0.22. This is one part of the list.", "data": [{"tested_on": "PDC-DUC18828", "test": "cell viability of compound + 1 nM pemigatinib relative to pemigatinib-only (DMSO) wells (fraction); PDC-DUC18828 is a patient-derived cholangiocarcinoma cell line; higher = less growth inhibition", "details": "first compound 1 µM; pemigatinib concentration 1 nM; 72 h", "description": "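Selleck Bioactive library screen in the patient-derived FGFR2 fusion-positive ICC cell line PDC-DUC18828 (500 cells/well). Each compound was tested at 1 uM with 1 nM pemigatinib, in triplicate, for 72 h. Viability was read by CellTiter-Glo and normalised to plate DMSO controls. Value is the paper's averaged normalised viability.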", "values": [{"compound": "C=CCc1cc(OC)c(O)c(C(=O)NCCO)c1", "note": "[Alibendol] + CCN1C(=O)N(c2c(F)c(OC)cc(OC)c2F)Cc2cnc3[nH]c(CN4CCOCC4)cc3c21 [pemigatinib]", "cell viability": 1.03}, {"compound": "Nc1ccc(S(=O)(=O)Nc2ncccn2)cc1", "note": "[Sulfadiazine] + CCN1C(=O)N(c2c(F)c(OC)cc(OC)c2F)Cc2cnc3[nH]c(CN4CCOCC4)cc3c21 [pemigatinib]", "cell viability": 1}, {"compound": "CCCC(C)NC(=O)c1ccc(Cl)c(Cl)c1", "note": "(stereo not drawn) + CCN1C(=O)N(c2c(F)c(OC)cc(OC)c2F)Cc2cnc3[nH]c(CN4CCOCC4)cc3c21 [pemigatinib]", "cell viability": 1.02}, {"compound": "CNC1CCC(N(Cc2cccc(-c3ccncc3)c2)C(=O)c2sc3ccccc3c2Cl)CC1", "note": "(stereo not drawn) [Smoothened Agonist (SAG) HCl] + CCN1C(=O)N(c2c(F)c(OC)cc(OC)c2F)Cc2cnc3[nH]c(CN4CCOCC4)cc3c21 [pemigatinib]", "cell viability": 0.933}, {"compound": "C#C[C@]1(OC(C)=O)CC[C@H]2[C@@H]3CCC4=C[C@@H](OC(C)=O)CC[C@@H]4[C@H]3CC[C@@]21C", "note": "[Ethynodiol diacetate] + CCN1C(=O)N(c2c(F)c(OC)cc(OC)c2F)Cc2cnc3[nH]c(CN4CCOCC4)cc3c21 [pemigatinib]", "cell viability": 0.911}, {"compound": "COC(=O)N1CCN(Cc2cccc(NC(=O)Nc3ccc(C)nc3)c2F)CC1", "note": "+ CCN1C(=O)N(c2c(F)c(OC)cc(OC)c2F)Cc2cnc3[nH]c(CN4CCOCC4)cc3c21 [pemigatinib]", "cell viability": 0.985}, {"compound": "O=C(O)CSc1cc(NS(=O)(=O)c2ccc(Br)cc2)c2ccccc2c1O", "note": "+ CCN1C(=O)N(c2c(F)c(OC)cc(OC)c2F)Cc2cnc3[nH]c(CN4CCOCC4)cc3c21 [pemigatinib]", "cell viability": 0.949}, {"compound": "Nc1ccc(O)c(C(=O)O)c1", "note": "[Mesalamine] + CCN1C(=O)N(c2c(F)c(OC)cc(OC)c2F)Cc2cnc3[nH]c(CN4CCOCC4)cc3c21 [pemigatinib]", "cell viability": 0.947}, {"compound": "COc1cc2c(cc1O)CC[C@@H]1[C@@H]2CC[C@]2(C)[C@@H](O)CC[C@@H]12", "note": "[2-Methoxyestradiol (2-MeOE2)] + CCN1C(=O)N(c2c(F)c(OC)cc(OC)c2F)Cc2cnc3[nH]c(CN4CCOCC4)cc3c21 [pemigatinib]", "cell viability": 0.516}, {"compound": "NC(=O)c1cccc2[nH]c(-c3ccc(C4CCCN4)cc3F)nc12", "note": "(stereo not drawn) + CCN1C(=O)N(c2c(F)c(OC)cc(OC)c2F)Cc2cnc3[nH]c(CN4CCOCC4)cc3c21 [pemigatinib]", "cell viability": 0.961}, {"compound": "COC(=O)C1=C(C)NC(C)=C(C(=O)OC)C1c1ccccc1[N+](=O)[O-]", "note": "[Nifedipine] + CCN1C(=O)N(c2c(F)c(OC)cc(OC)c2F)Cc2cnc3[nH]c(CN4CCOCC4)cc3c21 [pemigatinib]", "cell viability": 0.965}, {"compound": "CC(C)NC[C@H](O)COc1ccc(CCOCC2CC2)cc1", "note": "[Levobetaxolol HCl] + CCN1C(=O)N(c2c(F)c(OC)cc(OC)c2F)Cc2cnc3[nH]c(CN4CCOCC4)cc3c21 [pemigatinib]", "cell viability": 0.96}, {"compound": "NC(=O)c1ncn([C@@H]2O[C@H](CO)[C@@H](O)[C@H]2O)c1N", "note": "[Acadesine] + CCN1C(=O)N(c2c(F)c(OC)cc(OC)c2F)Cc2cnc3[nH]c(CN4CCOCC4)cc3c21 [pemigatinib]", "cell viability": 0.951}, {"compound": "CC1=C(C(=O)OC2CCCCC2)C(c2ccc([N+](=O)[O-])cc2)C2=C(CC(C)(C)CC2=O)N1", "note": "(stereo not drawn) + CCN1C(=O)N(c2c(F)c(OC)cc(OC)c2F)Cc2cnc3[nH]c(CN4CCOCC4)cc3c21 [pemigatinib]", "cell viability": 0.974}, {"compound": "C[C@@H]1C(=O)O[C@H]2C[C@@]34[C@H]5C[C@@H](C(C)(C)C)[C@]36[C@@H](OC(=O)[C@@H]6O)O[C@@]4(C(=O)O5)[C@]21O", "note": "[Ginkgolide A] + CCN1C(=O)N(c2c(F)c(OC)cc(OC)c2F)Cc2cnc3[nH]c(CN4CCOCC4)cc3c21 [pemigatinib]", "cell viability": 1}, {"compound": "O=C(O)C(Cc1ccccc1[N+](=O)[O-])=NNc1nc(-c2ccc(Cl)c(Cl)c2)cs1", "note": "(mixture of isomers) + CCN1C(=O)N(c2c(F)c(OC)cc(OC)c2F)Cc2cnc3[nH]c(CN4CCOCC4)cc3c21 [pemigatinib]", "cell viability": 0.955}, {"compound": "CC(c1cc2ccccc2s1)N(O)C(N)=O", "note": "(stereo not drawn) [Zileuton] + CCN1C(=O)N(c2c(F)c(OC)cc(OC)c2F)Cc2cnc3[nH]c(CN4CCOCC4)cc3c21 [pemigatinib]", "cell viability": 1.01}, {"compound": "CC(C)(F)C[C@H](N[C@@H](c1ccc(-c2ccc(S(C)(=O)=O)cc2)cc1)C(F)(F)F)C(=O)NC1(C#N)CC1", "note": "[Odanacatib (MK-0822)] + CCN1C(=O)N(c2c(F)c(OC)cc(OC)c2F)Cc2cnc3[nH]c(CN4CCOCC4)cc3c21 [pemigatinib]", "cell viability": 1.02}, {"compound": "COc1cc(C)c(/C=C/C(C)=C/C=C/C(C)=C/C(=O)O)c(C)c1C", "note": "[Acitretin] + CCN1C(=O)N(c2c(F)c(OC)cc(OC)c2F)Cc2cnc3[nH]c(CN4CCOCC4)cc3c21 [pemigatinib]", "cell viability": 0.961}, {"compound": "C[C@@H]1COCCN1c1cc(C2([S@](C)(=N)=O)CC2)nc(-c2cc[nH]c3nccc2-3)n1", "note": "+ CCN1C(=O)N(c2c(F)c(OC)cc(OC)c2F)Cc2cnc3[nH]c(CN4CCOCC4)cc3c21 [pemigatinib]", "cell viability": 0.929}, {"compound": "C/C(=N\\NC(=S)N1CCC1)c1ccccn1", "note": "+ CCN1C(=O)N(c2c(F)c(OC)cc(OC)c2F)Cc2cnc3[nH]c(CN4CCOCC4)cc3c21 [pemigatinib]", "cell viability": 0.323}, {"compound": "O=c1[nH]c(=O)n([C@H]2C[C@H](O)[C@@H](CO)O2)cc1F", "note": "[Floxuridine] + CCN1C(=O)N(c2c(F)c(OC)cc(OC)c2F)Cc2cnc3[nH]c(CN4CCOCC4)cc3c21 [pemigatinib]", "cell viability": 0.982}, {"compound": "CN(C)CCc1c[nH]c2ccc(C[C@H]3COC(=O)N3)cc12", "note": "[Zolmitriptan] + CCN1C(=O)N(c2c(F)c(OC)cc(OC)c2F)Cc2cnc3[nH]c(CN4CCOCC4)cc3c21 [pemigatinib]", "cell viability": 0.992}, {"compound": "O=C1c2cccc(O)c2C(=O)c2c(O)cc(CO)cc21", "note": "[Aloe-emodin] + CCN1C(=O)N(c2c(F)c(OC)cc(OC)c2F)Cc2cnc3[nH]c(CN4CCOCC4)cc3c21 [pemigatinib]", "cell viability": 1.03}, {"compound": "CN(C)CCC=C1c2ccccc2C=Cc2ccccc21", "note": "[Cyclobenzaprine HCl] + CCN1C(=O)N(c2c(F)c(OC)cc(OC)c2F)Cc2cnc3[nH]c(CN4CCOCC4)cc3c21 [pemigatinib]", "cell viability": 0.969}, {"compound": "NS(=O)(=O)c1cc2c(cc1Cl)NCNS2(=O)=O", "note": "[Hydrochlorothiazide] + CCN1C(=O)N(c2c(F)c(OC)cc(OC)c2F)Cc2cnc3[nH]c(CN4CCOCC4)cc3c21 [pemigatinib]", "cell viability": 0.979}, {"compound": "O=C1C(=O)N(Cc2ccc(Cl)c(Cl)c2)c2ccccc21", "note": "[Apoptosis Activator 2] + CCN1C(=O)N(c2c(F)c(OC)cc(OC)c2F)Cc2cnc3[nH]c(CN4CCOCC4)cc3c21 [pemigatinib]", "cell viability": 0.776}, {"compound": "O=C(NC1CCOCC1)c1ccc(-c2cc(-c3c[nH]nc3-c3ccccn3)ccn2)cc1", "note": "+ CCN1C(=O)N(c2c(F)c(OC)cc(OC)c2F)Cc2cnc3[nH]c(CN4CCOCC4)cc3c21 [pemigatinib]", "cell viability": 0.999}, {"compound": "C[N+]1(C)CCC(=C(c2ccccc2)c2ccccc2)CC1", "note": "[Diphemanil Methylsulfate] + CCN1C(=O)N(c2c(F)c(OC)cc(OC)c2F)Cc2cnc3[nH]c(CN4CCOCC4)cc3c21 [pemigatinib]", "cell viability": 0.97}, {"compound": "COc1cc(/C=C/C(=O)O)ccc1O", "note": "[Ferulic Acid] + CCN1C(=O)N(c2c(F)c(OC)cc(OC)c2F)Cc2cnc3[nH]c(CN4CCOCC4)cc3c21 [pemigatinib]", "cell viability": 0.958}, {"compound": "CN[C@@H](C)C(=O)N[C@H](C(=O)N1CCC[C@H]1C(=O)Nc1snnc1-c1ccccc1)C1CCCCC1", "note": "+ CCN1C(=O)N(c2c(F)c(OC)cc(OC)c2F)Cc2cnc3[nH]c(CN4CCOCC4)cc3c21 [pemigatinib]", "cell viability": 0.888}, {"compound": "CN1CCN(c2cccc(Nc3nc4c(-c5ccc(S(C)(=O)=O)cc5)cccn4n3)c2)CC1", "note": "+ CCN1C(=O)N(c2c(F)c(OC)cc(OC)c2F)Cc2cnc3[nH]c(CN4CCOCC4)cc3c21 [pemigatinib]", "cell viability": 0.856}, {"compound": "COc1cc2nc(N3CCN(C(=O)C4CCCO4)CC3)nc(N)c2cc1OC", "note": "(stereo not drawn) [Terazosin HCl] + CCN1C(=O)N(c2c(F)c(OC)cc(OC)c2F)Cc2cnc3[nH]c(CN4CCOCC4)cc3c21 [pemigatinib]", "cell viability": 1.05}, {"compound": "CC(C)(O)CC[C@@H](O)[C@](C)(O)[C@H]1CC[C@@]2(O)C3=CC(=O)[C@@H]4C[C@@H](O)[C@@H](O)C[C@]4(C)[C@H]3CC[C@]12C", "note": "[20-Hydroxyecdysone] + CCN1C(=O)N(c2c(F)c(OC)cc(OC)c2F)Cc2cnc3[nH]c(CN4CCOCC4)cc3c21 [pemigatinib]", "cell viability": 0.922}, {"compound": "CNC(=O)c1nn(C)c2c1C(C)(C)Cc1cnc(Nc3ccc(N4CCN(C)CC4)cc3)nc1-2", "note": "+ CCN1C(=O)N(c2c(F)c(OC)cc(OC)c2F)Cc2cnc3[nH]c(CN4CCOCC4)cc3c21 [pemigatinib]", "cell viability": 0.67}, {"compound": "CN(C)CCCOc1nn(Cc2ccccc2)c2ccccc12", "note": "[Benzydamine HCl] + CCN1C(=O)N(c2c(F)c(OC)cc(OC)c2F)Cc2cnc3[nH]c(CN4CCOCC4)cc3c21 [pemigatinib]", "cell viability": 1.05}, {"compound": "O=C1c2c(O)cc(O)cc2OC(c2ccc(O)c(O)c2)C1O", "note": "(stereo not drawn) [Taxifolin (Dihydroquercetin)] + CCN1C(=O)N(c2c(F)c(OC)cc(OC)c2F)Cc2cnc3[nH]c(CN4CCOCC4)cc3c21 [pemigatinib]", "cell viability": 0.92}, {"compound": "FC(F)(F)c1ccc(/C=C/c2nc(COc3ccc(CCCCn4ccnn4)cc3)co2)cc1", "note": "[Mubritinib (TAK 165)] + CCN1C(=O)N(c2c(F)c(OC)cc(OC)c2F)Cc2cnc3[nH]c(CN4CCOCC4)cc3c21 [pemigatinib]", "cell viability": 0.907}]}]}
